Results: PubChem BioAssay AID1508642 (National Center for Advancing Translational Sciences (NCATS), 2021)
Out of some 43,000 compounds screened, about 200 (0.47%) were called active. Roughly 12% stayed inconclusive and do not appear here. Calls come from the whole dose curve; as a rule, active = well fitted cell-killing curve with a large enough effect; inconclusive = small, poorly fitted or top-dose-only effect, or effect the other way; inactive = flat fitted curve, though single readings scatter. The list shows a part of the results.

Assay: Cell viability qHTS assay in S16 Pmp22-F2sN cells; note: nearly all actives have a fitted effect of over 65% in size
Settings: S16 Pmp22-F2sN Schwann cells (luciferase reporters placed in the Pmp22 gene) viability, CellTiter-Glo, 24 h; series mostly up to 57.5 µM; activity change, negative = cytotoxicity: at the top concentration
Outline: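 S16 Schwann cells carrying the Pmp22-F2sN reporter, seeded in 1536-well format, were exposed to library compounds for 24 h at 37C. Viability was read as CellTiter-Glo luminescence after 15 min at room temperature.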
% is set by controls: 0 for no effect and ±100 for the full control effect.

Row | SMILES | activity change, negative = cytotoxicity
1 | COc1ccc(OC)c(NC(=O)Cn2cnc3sc(C)c(S(=O)(=O)N4CCN(c5ccccc5OC)CC4)c3c2=O)c1 | inactive: -1.81%
2 | COc1cccc(NC(=O)c2sc3nc(C)c(C(=O)Nc4ccc(C)cc4C)c(-c4sccc4C)c3c2N)c1 | inactive: 0.509%
3 | O=c1c2oc3ccccc3c2n(Cc2cccc(F)c2)c(=O)n1Cc1ccco1 | inactive: 3.48%
4 | CC(C)c1ccc2oc(-c3cc(NC(=O)c4cccs4)ccc3Cl)nc2c1 | inactive: 6.53%
5 | c1ccc(Cc2nnc(SCc3nc(-c4cccs4)no3)n2-c2ccccc2)cc1 | inactive: -19.5%
6 | Cc1ccccc1N1CCN(S(=O)(=O)c2nnc(NC(=O)c3ccccc3)s2)CC1 | inactive: -7%
7 | COc1ccc(C(=O)Nc2cc(C(C)C)c(O)c(S(=O)(=O)c3ccc(OC)cc3)c2C)cc1 | inactive: 1.74%
8 | COc1ccc(S(=O)(=O)c2c(Nc3ccc(F)cc3)sc(C(=O)c3ccc(C)cc3C)c2N)cc1 | inactive: -8.27%
9 | CCCn1c(=O)n(-c2cc(Cl)c(OC)cc2OC)c(=O)c2c3c(sc21)CN(C(C)=O)CC3 | inactive: 29.5%
10 | CC1=C(C(=O)Nc2cccnc2)C(c2cccc(O)c2)n2nc(SCc3ccccc3)nc2N1 (stereo not given) | inactive: 2.74%
11 | Cc1ccc([C@H]2Nc3ccc(S(=O)(=O)Nc4cccc(Cl)c4C)cc3[C@H]3C=CC[C@H]32)cc1 | inactive: 0.0848%
12 | CCn1cc(CCC(=O)NCc2ccc(F)cc2)c2ccccc21 | inactive: 7.18%
13 | Cc1ccc(Cl)cc1NC(=O)Nc1c(C)n(C)n(-c2ccccc2)c1=O | inactive: 11.1%
14 | CCOC(=O)CSc1nc2ccc(NC(=O)c3ccc(F)cc3)cc2s1 | inactive: 1.94%
15 | CCOC(=O)c1cccc(NC(=O)CCc2c(C)nc3cc(-c4ccc(Cl)cc4)nn3c2C)c1 | inactive: 1.73%
16 | COc1ccc(NC(=O)Cn2cc(S(=O)(=O)c3ccc(C)cc3)c(=O)c3ccccc32)cc1OC | inactive: 6.68%
17 | CCOc1ccccc1Nc1nc(-c2cccc(Cl)c2)c2c(n1)-c1ccccc1OC2 | inactive: 3.85%
18 | Cc1ccc(CSCC(=O)NCc2ccc(F)cc2)cc1 | inactive: 3.85%
19 | COc1ccc(-c2noc(-c3ccc(NCc4ccco4)c([N+](=O)[O-])c3)n2)cc1 | inactive: 9.43%
20 | COc1ccc(-c2ccc(CNc3ccc4[nH]c(=O)[nH]c4c3)o2)cc1Cl | inactive: -9.25%
21 | Cn1cnnc1SCC(=O)Nc1cc(C(=O)O)cc(C(=O)O)c1 | inactive: 3.42%
22 | COc1cc(-c2noc(CSc3nc(-c4ccccc4)cc(=O)[nH]3)n2)cc(OC)c1OC | inactive: -1.45%
23 | Cc1cccc(C(=O)NCC(c2ccc3c(c2)OCO3)N2CCN(c3ccccc3F)CC2)c1 (stereo not given) | inactive: -28.5%
24 | COc1ccc(NC(=O)c2sc3nc4c(cc3c2N)CN(C(C)C)CC4)c(OC)c1 | inactive: -10.2%

Row | SMILES | activity change, negative = cytotoxicity
25 | Cc1ccc(-n2nc(C)c3c(C)cc(=O)n(CC(=O)Nc4ccc(Br)cc4F)c32)cc1 | inactive: 21.3%
26 | COc1ccc(S(=O)(=O)c2c(Nc3ccc(C)cc3)sc(C(=O)c3ccc(C)cc3)c2N)cc1 | inactive: 8.68%
27 | Cc1cc(=O)n2[nH]c(NCc3ccc(F)cc3)nc2n1 | inactive: 0.0595%
28 | O=c1cc(-c2ccccc2)c2cc(Cl)c3c(c2o1)CN(Cc1ccccc1)CO3 | inactive: -0.932%
29 | COc1ccc(CC(=O)NCc2ccc3c(c2)CCN3C(=O)c2ccc(Cl)cc2)cc1OC | inactive: -9.13%
30 | Cc1cc(C)c2c(=O)cc(CSc3nnc(COc4ccccc4C)n3C)[nH]c2c1 | inactive: 17.5%
31 | COc1ccc(OC)c(NC(=O)CN2C(=O)c3ccccc3Sc3ccc(C(=O)N4CCCC4)cc32)c1 | inactive: -10.2%
32 | COc1ccc(N(Cc2cccs2)C(=O)Nc2ccccc2)cc1 | inactive: 12.5%
33 | Cc1cc(-c2ccc(C)c(S(=O)(=O)N(C)c3ccc(C)c(C)c3)c2)on1 | inactive: -13.4%
34 | COc1ccccc1NC(=O)Cn1c(=O)n(Cc2ccco2)c(=O)c2cccnc21 | inactive: 6.3%
35 | CCOC(=O)c1c(Oc2ccc(OC)cc2)nnc(-c2ccccc2)c1-c1ccccc1 | inactive: -24.7%
36 | NC(=O)C1(N2CCCCC2)CCN(C(=O)Nc2ccc(C(F)(F)F)cc2)CC1 | inactive: -0.269%
37 | Cc1ccc(NCc2ccccc2-c2nnc(-c3ccccc3Cl)o2)c(C)c1 | inactive: -11.6%
38 | Cc1ccc(CNS(=O)(=O)c2cc(C(=O)Nc3cccc(C(F)(F)F)c3)ccc2F)cc1 | inactive: 8.31%
39 | CCOCCCNC(=O)c1cc2c(-c3ccc(OC)c(OC)c3)nn(C)c2s1 | inactive: -4.11%
40 | COCCN1CCc2nc(SCC(=O)Nc3ccc(Br)cc3)[nH]c(=O)c2C1 | inactive: 12.5%
41 | Cc1nc2c(C(=O)NCCc3ccccc3)cnn2c(C)c1Cc1c(F)cccc1Cl | inactive: 14.7%
42 | Cc1c2cnn(CC(=O)NCc3ccc(F)cc3)c(=O)c2c(C)n1Cc1ccccc1F | inactive: -25.5%
43 | COc1ccc(Cl)cc1Nc1ncnc2c1c(-c1ccccc1)cn2-c1ccccc1 | inactive: 13.3%
44 | CC(C)(C)OC(=O)N1CCC(c2c(C(=O)NCc3cccs3)cnn2-c2ccc(F)cc2F)CC1 | inactive: -22.7%
45 | Cc1noc(/C=C/N(C)C)c1S(=O)(=O)N1CCCC(C(=O)Nc2ccc(F)cc2F)C1 (stereo not given) | inactive: 2.46%
46 | COC(=O)c1ccccc1NC(=O)CCC(=O)N1CCOc2ccccc21 | inactive: 4.18%
47 | CCN(CC)C(=O)c1sc(NC(=O)C(C)Sc2nc(-c3ccccc3)cc(C(F)(F)F)n2)c(C(=O)OC)c1C (stereo not given) | inactive: -23.7%
48 | CCN(c1ccccc1)c1nnc(NC(=O)Nc2cccc(Cl)c2C)s1 | inactive: -24.4%

Row | SMILES | activity change, negative = cytotoxicity
49 | CSc1ccc(-c2nc3ncccn3c2Nc2ccc(C)c(C)c2)cc1 | inactive: -22.1%
50 | Nc1cc(=O)nc(SCC(=O)Nc2cccc(Cl)c2)n1CCc1ccccc1 | inactive: 7.65%
51 | CN(C)c1oc(/C=C/c2ccc(F)cc2)nc1C#N | inactive: 11.1%
52 | CCCC(=O)NCC(c1ccc2c(c1)OCO2)N1CCN(c2ccccc2)CC1 (stereo not given) | inactive: -16.4%
53 | CCCCCOc1ccc(/C=C/C(=O)Nc2sc(C(C)=O)c(C)c2C(=O)OCC)cc1OC | inactive: 19%
54 | CCc1nnc(NC(=O)c2nc(SCc3ccccc3C)ncc2Cl)s1 | inactive: -0.258%
55 | CCc1ccc(-n2c(=O)c3sc4ccccc4c3n(Cc3cccc(F)c3)c2=O)cc1 | inactive: -7.61%
56 | CCCNC(=O)C1CCN(c2ncnc3c2nc2n3CCCCC2)CC1 | inactive: 1.22%
57 | Cc1c(Cl)cccc1NC(=O)Cn1c(=O)nc(-c2ccccc2)c2ccccc21 | inactive: 3.64%
58 | Cc1oc(C)c2c(=O)cc(-c3ccc4c(c3)OCO4)cc(OC(=O)c3ccccc3Cl)c12 | inactive: -8.33%
59 | Cc1cccc(NS(=O)(=O)c2ccc(-n3cccn3)cc2)c1C | inactive: -1.77%
60 | Cc1nn(C)c2c1c(C(F)(F)F)cc(=O)n2Cc1cccc(Br)c1 | inactive: 2.77%
61 | CC(C)CNc1nc(Oc2ccc(OCC(N)=O)nn2)nc(N2CCOCC2)n1 | inactive: -0.983%
62 | COc1ccccc1CNC(=O)c1ccc2nc(-c3ccccc3)c(-c3ccccc3)nc2c1 | inactive: -6.5%
63 | CCOc1ccc(CNC(=O)c2ccc(NC(=O)N3CCCCc4ccccc43)cc2)cc1OC | inactive: -1.6%
64 | CCn1cc(C(=O)NCc2ccc(C)cc2)c(=O)c2cc(S(=O)(=O)N3CCCCCC3)ccc21 | inactive: 24%
65 | O=C(CCc1nc2cccnc2n1Cc1cccs1)Nc1cccc(Cl)c1 | inactive: -4.6%
66 | CCOc1ccc(-n2c(-c3ccccc3)c(C)n3c4c(=O)n(C)c(=O)n(C)c4nc23)cc1 | inactive: 16.6%
67 | Cn1cc(S(=O)(=O)N2CCCCCC2)cc1C(=O)NCc1ccccc1Cl | inactive: -13.1%
68 | Cc1ccc(S(=O)(=O)N2CCOCC2)cc1C(=O)Nc1ccccc1C(=O)O | inactive: 11.3%
69 | O=S(=O)(Nc1ccc2nc(-c3cccc(Cl)c3)oc2c1)c1ccccc1 | inactive: 7.28%
70 | Cc1ccc2onc(CC(=O)N(C)c3ccccc3)c2c1 | inactive: -2.16%
71 | Cc1cccc(N2CCN(C3(c4ccccc4)C(=O)c4ccccc4C3=O)CC2)c1C | inactive: -6.18%
72 | O=S(=O)(Nc1nc2n(n1)C(c1ccc(F)cc1)C=C(c1ccccc1)N2)c1ccc(Cl)cc1 (stereo not given) | inactive: 4.41%

Row | SMILES | activity change, negative = cytotoxicity
73 | CN(C(=O)C(=O)Nc1ccc2nc3n(c(=O)c2c1)CCCCC3)c1cccc(C(F)(F)F)c1 | inactive: 7.53%
74 | CC(C)Sc1ncc(Cl)c(C(=O)Nc2nnc(C(C)C)s2)n1 | inactive: 24.2%
75 | CCc1ccc(NC(=O)Cn2c(=O)oc3cc(S(=O)(=O)N4CCCCCC4)ccc32)cc1 | inactive: -8.31%
76 | Cc1onc(-c2ccc(F)cc2F)c1C(=O)Nc1cccc(C(F)(F)F)c1 | inactive: -0.762%
77 | O=C(Nc1ccccc1)c1cccc(S(=O)(=O)Nc2cccc(F)c2)c1 | inactive: -4.07%
78 | COc1cccc(-c2ccc3c(N)c(C(=O)NCc4ccc(Cl)cc4)sc3n2)c1 | inactive: -9.16%
79 | O=C(CC(c1cccs1)N1Cc2ccccc2C1=O)Nc1ccc(F)c(Cl)c1 (stereo not given) | inactive: 0.486%
80 | CC(=O)Nc1cc(C(=O)NCc2ccc(C)cc2)ccc1Sc1ccc(C)cc1 | inactive: -11.9%
81 | C=CCC(CC=C)(CNC(=O)C(=O)Nc1cccc(C(F)(F)F)c1)c1ccccc1 | inactive: -4.22%
82 | Cc1ccc(Oc2c(C(F)(F)F)oc3cc(OCC(=O)NC4CCCCC4)ccc3c2=O)cc1 | inactive: 23.8%
83 | CCCN1C(=O)C(O)(CC(=O)c2ccc(CC)cc2)c2ccccc21 (stereo not given) | inactive: -24.6%
84 | CCc1cccc(C)c1NC(=O)CSc1nc(C)cc(C)c1C(=O)Nc1ccccc1 | inactive: -17.5%
85 | COc1ccc(-c2noc(-c3cccnc3NCc3ccco3)n2)cc1 | inactive: 19.9%
86 | CCC1CN(C(=O)N2CCC(C(=O)NCCN(CC)CC)CC2)c2ccccc2O1 (stereo not given) | inactive: -11.1%
87 | CCOC(=O)CSc1nc2ccccc2c(=O)n1CCc1ccc(OC)c(OC)c1 | inactive: -22.3%
88 | Cc1c(Cl)cccc1NC(=O)C(C)n1c(=O)cc(-c2ccccc2)c2c(C)nn(C)c21 (stereo not given) | inactive: -1.75%
89 | COc1ccccc1CNC(=O)CSc1ncc2c(n1)-c1ccc(Cl)cc1N(Cc1ccccc1)S2(=O)=O | inactive: -1.52%
90 | COc1ccc(NC(=O)C(c2ccc(C)cc2)N(C)C(=O)Cc2cccs2)cc1 (stereo not given) | inactive: -8.43%
91 | COc1ccc(-c2cccc(NS(=O)(=O)c3cc(C)c(OC)c(C)c3C)c2)nn1 | inactive: -16.8%
92 | CCOc1ccccc1C(=O)N1CC(=O)Nc2ccc(Cl)cc2C1c1ccccc1 (stereo not given) | inactive: -9.27%
93 | O=C(Cn1c(=O)c2cc(Cl)ccc2n2nncc12)Nc1ccccc1 | inactive: 1.22%
94 | CCc1ccc(NC(=O)c2sc3nc(C)c(Cl)c(C)c3c2N)cc1 | inactive: -2.72%
95 | O=C(Cn1c(-c2cccs2)cc2cc(Cl)ccc21)N1CCN(c2ccccc2)CC1 | inactive: 0.0072%
